Measurements: patent US12171732B2, “Compositions and use of N-chlorotaurine for treatment and prevention of respiratory infections” (priority 2021, dated 2024)

Target: SARS-CoV-2 spike protein (Severe acute respiratory syndrome coronavirus 2, UniProt P0DTC2)
Conditions: 1% NCT, 30 min, 37° C.

O=S(=O)(O)CCNCl [NCT, N-chlorotaurine]
methionines oxidized: Two
oxidation of cysteine: No oxidation of cysteine could be detected
tryptophan chlorinated: one
tyrosines chlorinated: 18
